Inconclusive means that the source gave no clear call. Such entries were picked first, then a sample of the others. Entries that show only a call come without a potency. For some assays here: A potency beside an inconclusive call is a rough fit, not a confirmed value. Active and inactive are the calls of the source. Unless noted, the call rests on the fitted dose curve; in most records, active means well fitted curve in the direction sought with a large enough effect in the repeat runs; inconclusive means weak or mixed curves; inactive means no such curve, though single readings can be large; an effect the other way counts as inactive or inconclusive.
Assays:
[1] = qHTS assay for small molecule agonists of the p53 signaling pathway (AID 651631; calls by dose curve; further: nearly all actives have a fitted effect of over 15% in size; further: potency means the concentration at half of the fitted maximal effect); conditions: HCT-116 p53RE-bla reporter, beta-lactamase FRET ratio, 16 h; activation: at 73.3 µM (top of the series) unless noted
Procedure, shortened: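 Quantitative high-throughput format: 4,000 p53RE-bla HCT-116 cells/well, 5 h pre-incubation, 16 h compound exposure at 37 °C, 2 h room-temperature substrate step, fluorescence intensity measured.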

[2] = qHTS assay for identifying genotoxic compounds that show differential cytotoxicity against isogenic chicken DT40 cell lines with known DNA damage response pathways - Rad54/Ku70 mutant cell line (AID 743015); conditions: DT40 Rad54/Ku70 mutant viability, CellTiter-Glo, 40 h; activity change, negative = cytotoxicity: at 66.8 µM (top of the series) unless noted; further: nearly all actives have a fitted effect of over 60% in size; further: potency means the concentration at half of the fitted maximal effect
[3] = qHTS assay to identify small molecule antagonists of the peroxisome proliferator-activated receptor delta (PPARd) signaling pathway - cell viability counter screen (AID 743213); conditions: PPARd-bla HEK293H viability, CellTiter-Glo luminescence, 17 h; viability change, negative = cytotoxic: at 62 µM (top of the series) unless noted; further: nearly all actives have a fitted effect of over 50% in size; further: potency means the concentration at half of the fitted maximal effect
Procedure, shortened: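 HEK293H PPARd UAS-bla cells, 5 h pre-incubation, compound + L165041 300 nM final, 17 h 37 C; B/G FRET substrate 2 h RT; then CellTiter-Glo 30 min RT, luminescence.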

[4] = qHTS assay to identify small molecule agonists of the farnesoid-X-receptor (FXR) signaling pathway - cell viability counter screen (AID 743218); conditions: FXR-bla HEK293T viability, CellTiter-Glo luminescence, 16 h; viability change, negative = cytotoxic: at 62.6 µM (top of the series) unless noted; further: nearly all actives have a fitted effect of over 45% in size; further: potency means the concentration at half of the fitted maximal effect
Procedure, shortened: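 FXR-UAS-bla HEK 293T cells exposed to compounds for 16 h at 37C. Cytotoxicity read in the same wells by CellTiter-Glo luminescence after 30 min at room temperature, following the beta-lactamase FRET read.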

[5] = qHTS assay to identify small molecule agonists of H2AX - cell viability counter screen (AID 1224847; calls by dose curve; further: top concentration of the series differs between compounds; nearly all actives have a fitted effect of over 30% in size)
Procedure, shortened: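 Read-out: CellTiter-Glo luminescence, 30 min RT. Cells: wild-type CHO-K1, 1000/well, 10% FBS, plated overnight at 37C. Treatment: 15 concentrations, 3 hr, 37C, 0.76% DMSO.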

[6] = Caspase-3/7 induction in HepG2 cells by small molecules, qHTS cell viability counter screen (AID 1346981); further: nearly all actives have a fitted effect of over 30% in size; further: potency means the concentration at half of the fitted maximal effect
Procedure, shortened: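 Wild-type HepG2 cells, 2,000/well, settled 5 hr at 37 C, 5% CO2 before compound addition. Viability read by CellTiter-Fluor fluorescence, reagent added after 16 hr compound exposure, then 1 hr at 37C, in the same wells as the caspase read.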

[7] = qHTS assay to identify small molecule agonists of the estrogen receptor beta (ER-beta) signaling pathway - cell viability counter screen (AID 1259380); further: nearly all actives have a fitted effect of over 30% in size; further: potency means the concentration at half of the fitted maximal effect
Procedure, shortened: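 ER-beta-UAS-bla HEK293T cells in medium with 2% charcoal-stripped FBS, pre-incubated 6 hr, then treated 16 hr at 37C. Cytotoxicity read in the same wells by CellTiter-Glo luminescence after 30 min at room temperature.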

[8] = target: Nuclear receptor subfamily 1 group I member 2 (Homo sapiens) (UniProt O75469); assay: Human pregnane X receptor (PXR) small molecule agonists, qHTS assay (AID 1346982); further: nearly all actives have a fitted effect of over 35% in size
Sequence of UniProt O75469 (O75469 whole entry, looked up): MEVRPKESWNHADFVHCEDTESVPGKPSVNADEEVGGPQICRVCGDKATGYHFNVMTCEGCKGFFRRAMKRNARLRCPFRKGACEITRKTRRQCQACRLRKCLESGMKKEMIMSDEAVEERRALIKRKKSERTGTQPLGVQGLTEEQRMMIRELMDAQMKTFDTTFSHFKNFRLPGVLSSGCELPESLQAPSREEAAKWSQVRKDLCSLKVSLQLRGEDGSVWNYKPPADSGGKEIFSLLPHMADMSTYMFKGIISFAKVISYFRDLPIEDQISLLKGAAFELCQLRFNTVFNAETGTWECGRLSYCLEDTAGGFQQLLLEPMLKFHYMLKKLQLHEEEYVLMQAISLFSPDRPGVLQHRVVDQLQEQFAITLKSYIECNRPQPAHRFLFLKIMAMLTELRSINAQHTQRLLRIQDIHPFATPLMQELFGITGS
Procedure, shortened: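 PXR-Luc HepG2 reporter cells (CYP3A4-driven luciferase) in 5% charcoal-stripped FBS medium, plated 5 h before compound addition, then treated 24 h at 37C. Luciferase read by ONE-Glo luminescence after 30 min at room temperature.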

[9] = qHTS assay to identify small molecule antagonists of the vitamin D receptor (VDR) signaling pathway - cell viability counter screen (AID 743225); conditions: VDR-bla HEK293T viability, CellTiter-Glo luminescence, 16 h; viability change, negative = cytotoxic: at 61 µM (top of the series) unless noted; further: nearly all actives have a fitted effect of over 50% in size; further: potency means the concentration at half of the fitted maximal effect
Procedure, shortened: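 Luminescent cell viability (CellTiter-Glo) in VDR-bla HEK 293T cells after 16 h compound exposure at 37C in the presence of 3 nM final 1-alpha,25-dihydroxy vitamin D3.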

[10] = qHTS RealTime-Glo MT Cell Viability Assay in HEK293 cells - 16 hour (AID 1224872); further: top concentration of the series differs between compounds; nearly all actives have a fitted effect of over 50% in size
Procedure, shortened: (§1)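 Nonlytic real-time viability readout: viable cells convert prosubstrate to NanoLuc substrate, giving luminescence proportional to live cell number. HEK293, 600 cells/well, compound added after 5 h, continuous culture at 37 C.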

[11] = qHTS assay to identify small molecule antagonists of the estrogen receptor alpha (ER-alpha) signaling pathway using the BG1 cell line - cell viability counter screen (AID 743081); conditions: BG1Luc4E2 viability, CellTiter-Fluor, 22 h; activity change, negative = cytotoxicity: at 70.3 µM (top of the series) unless noted;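 further: compound given together with 17beta-estradiol as the ER stimulus; nearly all actives have a fitted effect of over 45% in size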; further: potency means the concentration at half of the fitted maximal effect
[12] = target: Vitamin D3 receptor (Homo sapiens) (UniProt P11473); assay: qHTS assay to identify small molecule agonists of the vitamin D receptor (VDR) signaling pathway (AID 743222; calls by dose curve); conditions: HEK293T VDR-UAS-bla, beta-lactamase FRET ratio, 16 h
Sequence of UniProt P11473 (P11473 whole entry, looked up): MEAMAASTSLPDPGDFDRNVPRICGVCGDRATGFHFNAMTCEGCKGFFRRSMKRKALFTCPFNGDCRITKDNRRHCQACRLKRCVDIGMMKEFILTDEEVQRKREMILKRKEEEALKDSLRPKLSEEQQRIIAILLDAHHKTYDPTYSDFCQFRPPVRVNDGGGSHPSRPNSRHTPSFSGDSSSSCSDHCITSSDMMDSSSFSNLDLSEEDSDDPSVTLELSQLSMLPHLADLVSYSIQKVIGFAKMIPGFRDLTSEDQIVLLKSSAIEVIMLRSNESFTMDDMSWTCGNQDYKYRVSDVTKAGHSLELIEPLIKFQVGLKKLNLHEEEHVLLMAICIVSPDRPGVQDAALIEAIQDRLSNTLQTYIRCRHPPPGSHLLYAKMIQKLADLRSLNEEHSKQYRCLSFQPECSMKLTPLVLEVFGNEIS
Procedure, shortened: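 VDR-bla cells plated 4 h at 37 C, then exposed to compounds for 16 h at 37 C. Beta-lactamase reporter activity measured by fluorescence after 2 h room-temperature loading with LiveBLAzer B/G FRET substrate.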

[13] = qHTS assay to identify small molecule antagonists of the thyroid receptor (TR) signaling pathway (AID 743065); further: nearly all actives have a fitted effect of over 55% in size; further: potency means the concentration at half of the fitted maximal effect
Procedure, shortened: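 GH3.TRE-Luc rat pituitary cells (two TREs driving luciferase) were dosed with compound, then stimulated with 1 nM T3 (final) for 23.5 h at 37 C. ONE-Glo luminescence was the read-out, with CellTiter-Fluor fluorescence as the cytotoxicity counter-screen.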

[14] = qHTS assay for small molecule activators of the heat shock response signaling pathway (AID 743210; active means well fitted activation curve with a large enough effect in the signal ratio in the repeat runs, with a control signal flat, not every such curve was filed as active; inconclusive means weak or mixed curves; the % refers to the signal ratio); conditions: HeLa HSE-bla reporter, beta-lactamase ratio, 5 h; activation: at 62.6 µM (top of the series) unless noted
Procedure, shortened: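 HSE-bla HeLa cells (beta-lactamase reporter under heat shock response elements), plated overnight, then exposed to compounds 5 h at 37 C; LiveBLAzer B/G FRET substrate added, 2.5 h at room temperature, fluorescence intensity read.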

[15] = qHTS RealTime-Glo MT Cell Viability Assay in HEK293 cells - 8 hour (AID 1224887); further: top concentration of the series differs between compounds; nearly all actives have a fitted effect of over 50% in size
Procedure, shortened: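 600 cells/well were plated with the nonlytic NanoLuc/prosubstrate reagent, pre-incubated 5 h, then given 23 nL of compound in DMSO. Incubation at 37 C for 40 h, with luminescence from viable-cell-reduced substrate read repeatedly from 0 h.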

[16] = qHTS RealTime-Glo MT Cell Viability Assay in HEK293 cells - 24 hour (AID 1224886)
Procedure, shortened: as §1

[17] = qHTS assay to identify small molecule antagonists of the estrogen receptor alpha (ER-alpha) signaling pathway - cell viability counter screen (AID 743074; calls by dose curve;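 further: HEK293 cells carrying ER-alpha-UAS-bla reporter stimulated with 17beta-estradiol; nearly all actives have a fitted effect of over 45% in size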; further: potency means the concentration at half of the fitted maximal effect)
[18] = qHTS assay to identify small molecule agonists of the retinoic acid receptor (RAR) signaling pathway (AID 1159553); conditions: C3RL4 RARE luciferase reporter, agonist, 6 h
Procedure, shortened: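 C3RL4 RARE-luciferase cells were seeded at 1,000/well and grown overnight at 37 C, then exposed to compounds for 6 hr at 37 C, 5% CO2. Luciferase reagent was added and luminescence was read after 30 min at room temperature.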

[19] = target: Estrogen receptor beta (Homo sapiens) (UniProt Q92731); assay: qHTS assay to identify small molecule agonists of the estrogen receptor beta (ER-beta) signaling pathway (AID 1259377; active means well fitted activation curve with a large enough effect in the signal ratio in the repeat runs, not every such curve was filed as active; inconclusive means weak or mixed curves, or effect the other way; the % refers to the signal ratio; further: potency means the concentration at half of the fitted maximal effect); conditions: ER-beta-UAS-bla HEK293T, beta-lactamase FRET ratio, 16 h; activation: at 92.4 µM (top of the series) unless noted
Sequence of UniProt Q92731 (Q92731 whole entry, looked up): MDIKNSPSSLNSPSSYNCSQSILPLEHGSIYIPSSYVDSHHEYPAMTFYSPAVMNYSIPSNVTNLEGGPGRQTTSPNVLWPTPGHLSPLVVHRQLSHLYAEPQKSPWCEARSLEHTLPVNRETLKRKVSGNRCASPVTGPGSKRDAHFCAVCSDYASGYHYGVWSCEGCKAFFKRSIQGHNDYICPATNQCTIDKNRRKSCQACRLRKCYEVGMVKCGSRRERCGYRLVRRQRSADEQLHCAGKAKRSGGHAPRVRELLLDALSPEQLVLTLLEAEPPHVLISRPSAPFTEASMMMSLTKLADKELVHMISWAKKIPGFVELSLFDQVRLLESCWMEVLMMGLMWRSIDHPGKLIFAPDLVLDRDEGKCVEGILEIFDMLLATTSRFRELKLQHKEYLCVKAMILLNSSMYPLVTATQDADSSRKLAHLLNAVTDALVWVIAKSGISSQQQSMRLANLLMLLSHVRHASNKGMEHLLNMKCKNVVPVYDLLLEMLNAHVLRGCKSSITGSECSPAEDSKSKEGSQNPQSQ
Procedure, shortened: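 Screening used GripTite ER-beta-UAS-bla cells held in 2% charcoal-stripped FBS medium. After overnight (16 hr) compound incubation at 37C, beta-lactamase activity was detected with a FRET substrate by fluorescence.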

[20] = activation: at 63.5 µM (top of the series) unless noted
[21] = activation: at 73.3 µM (top of the series) unless noted
Tags describe the fitted curve by direction and shape or compound fluorescence and quenching.

COC(=O)CSc1cc(N=c2sc(=O)n3n2CCCC3)c(F)cc1Cl
Potency [1]: inconclusive: 77 µM [rising, partial curve, poor fit] | Potency [2]: inconclusive: 68.6 µM [cytotoxic, single point] | Potency [3]: inconclusive: 4.36 µM [cytotoxic, full curve, poor fit] | Potency [4]: inconclusive: 0.0012 µM [rising, full curve, poor fit] | Potency [5]: inactive | Potency [6]: inactive

NC(=O)c1ccccc1Cl
Potency [7]: inactive | Potency [8]: inactive

Oc1ccccc1F
Potency [2]: inactive | Potency [9]: inconclusive: 61.4 µM [cytotoxic, single point] | Potency [10]: inactive

CC(=O)N[C@@H](CCC(N)=O)C(=O)O
Potency [11]: inconclusive: 21.1 µM [rising, single point] | Potency [12, 20]: inactive | Potency [9]: inconclusive: 0.952 µM [cytotoxic, single point] | Potency [7]: inconclusive: 2.66 µM [rising, partial curve] | Potency [8]: inactive

CCC(=O)c1cccc(Cl)c1
Potency [9]: inactive

COc1ccc2c(c1)c(CC(=O)OCC(=O)O)c(C)n2C(=O)c1ccc(Cl)cc1
Potency [1]: inactive | Potency [11]: inconclusive: 7.5 µM [cytotoxic, single point] | Potency [4]: inactive

CCCOC(=O)CC
Potency [4]: inconclusive: 0.069 µM [rising, full curve, poor fit] | Potency [12, 20]: inactive | Potency [10]: inactive

NC(=O)Cc1cccc2ccccc12
Potency [1]: inactive | Potency [9]: inconclusive: 21.9 µM [cytotoxic, partial curve, poor fit]

NCCNCCN
Potency [2]: inconclusive: 48.6 µM [cytotoxic, partial curve, poor fit] | Potency [13]: inconclusive: 23.7 µM [inhibitor, partial curve, poor fit] | Potency [11]: inconclusive: 26.6 µM [cytotoxic, partial curve, poor fit] | Potency [14]: inactive | Potency [3]: inconclusive: 5.49 µM [cytotoxic, single point] | Potency [4]: inactive

O=[N+]([O-])c1cc([N+](=O)[O-])c2ccc(S(=O)(=O)O)cc2c1O
Potency [11]: active: 54.2 µM | Potency [3]: inactive | Potency [15]: inactive | Potency [6]: active: 24.2 µM

CCCCCCCCCCCCC1CO1 (configuration not stated)
Potency [11]: inactive | Potency [3]: inactive | Potency [16]: inactive

CC(=O)OC1CC(C)OC(C)O1 (configuration not stated)
Potency [17]: inconclusive: 4.83 µM [cytotoxic, full curve, poor fit] | Potency [3]: inconclusive: 5.42 µM [cytotoxic, single point] | Potency [4]: inactive | activation [18, 21]: inconclusive: -1.14% [phenotype inactive] | activation ([18]; at 73.3 µM (top of the series)): inactive: -1.57% | Potency [19]: inconclusive: 67.7 µM [activator, single point]

CCCCC(CC)COC(=O)COc1ccc(Cl)cc1C (configuration not stated)
Potency [2]: inconclusive: 77 µM [cytotoxic]

C1C2OC2C2C1C1CC2C2OC12 (configuration not stated)
Potency [3]: inactive

COc1ccc2c(c1)CCCC2=O
Potency [4]: inactive

CCCCCCCCC(CO)CCCCCC (configuration not stated)
Potency [18, 21]: inactive | Potency [19]: inactive

CC(=O)CCC=C(C)C
activation [1]: inconclusive: -3.46% [at 95.1 µM] | Potency [2]: inactive | Potency [17]: inconclusive: 22.1 µM [cytotoxic, single point] | Potency [12, 20]: inactive | Potency [8]: inactive

C[C@H]1COc2c(C3(N)CC3)c(F)cc3c(=O)c(C(=O)O)cn1c23
Potency [19]: inconclusive: 23.7 µM [activator, partial curve, poor fit] | Potency [7]: inconclusive: 11.9 µM [rising, partial curve, poor fit]

Cc1ccc(Nc2ccc(O)c3c2C(=O)c2ccccc2C3=O)cc1
Potency [8]: inactive

CC(=O)OC1CCCCC1C(C)(C)C (configuration not stated)
Potency [11]: inactive

NS(=O)(=O)c1ccccc1Cl
Potency [2]: inactive | Potency [3]: inactive | Potency [4]: inconclusive: 1.74 µM [rising, full curve, poor fit] | Potency [16]: inactive | Potency [15]: inactive

NCCN1CCNCC1
Potency [13]: inactive | activation [12, 20]: inconclusive: -6.58% | activation ([12]; at 81.1 µM (top of the series)): inactive: -1.03%

COCCO
Potency [3]: inactive | Potency [4]: inconclusive: 3.89 µM [rising, partial curve, poor fit]

CC(C(O)c1ccc(O)cc1)N1CCC(Cc2ccccc2)CC1 (configuration not stated)
Potency [11]: inconclusive: 0.237 µM [cytotoxic, full curve, poor fit] | Potency [7]: inactive

NC(=O)NO
Potency [2]: inconclusive: 68.6 µM [cytotoxic, single point] | Potency [17]: inactive | Potency [18, 21]: inactive | Potency [7]: inconclusive: 27.3 µM [rising, single point]

C=C1[C@H]2CC[C@@H]3[C@H]2C(C)(C)CCC[C@]13C
Potency [1]: inactive | Potency [2]: inactive | Potency [14]: inactive

Source: PubChem BioAssay (Tox21)
